Data taken from US12692294B2, “Engineered NRG-1 variants with improved selectivity toward ErbB4 but not against ErbB3” (Amgen Inc., priority 2021, dated 2026).
Values joined by “and” are separate entries in the source; they are usually repeats but may differ in a detail not shown here. Equal entries are not always repeated.

Legend:
ErbB3 = target: T1, ErbB3 (Rattus norvegicus, UniProt Q62799); test: In vitro phosphorylation of Akt in rat Schwann cells; type: cell-based; details: Akt (Serine 473) phosphorylation, 15 minutes treatment, read-out: Schwann cells (SC) (ErbB3) Avg EC50
T1 construct: forming the ErbB2/ErbB4 complex in cardiomyocytes and the ErbB2/ErbB3 complex in Schwann cells; endogenous in cells; host or cells: rat Schwann cells
Method in brief: (§1)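 Akt Ser473 phosphorylation, normalised to total Akt, was measured after 15-min neuregulin variant treatment of serum-starved (16 h) cells: rat Schwann cells for ErbB3, neonatal rat cardiomyocytes for ErbB4. EC50 derived by variable-slope log(agonist) fit; CM % agonism is the curve top.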

ErbB4 = target: T2, ErbB4 (Rattus norvegicus, UniProt Q62956); test: In vitro phosphorylation of Akt in neonatal rat cardiomyocytes; type: cell-based; details: for EC50: Akt (Serine 473) phosphorylation, neonatal rat cardiomyocytes, 15 minutes treatment, read-out: Cardiomyocyte (CM) (ErbB4) Avg EC50; for Selectivity SC/CM: ratio of EC50s Schwann cells/cardiomyocytes; for CM % Agonism AVG: top value of the Akt phosphorylation data points in cardiomyocytes, wild-type control 100
T2 construct: forming the ErbB2/ErbB4 complex in cardiomyocytes and the ErbB2/ErbB3 complex in Schwann cells; endogenous in cells; host or cells: primary neonatal rat cardiomyocytes (Sprague Dawley pups, 0 to 4 days old)
Method in brief: as §1

T2 sequence (Q62956 26-1308): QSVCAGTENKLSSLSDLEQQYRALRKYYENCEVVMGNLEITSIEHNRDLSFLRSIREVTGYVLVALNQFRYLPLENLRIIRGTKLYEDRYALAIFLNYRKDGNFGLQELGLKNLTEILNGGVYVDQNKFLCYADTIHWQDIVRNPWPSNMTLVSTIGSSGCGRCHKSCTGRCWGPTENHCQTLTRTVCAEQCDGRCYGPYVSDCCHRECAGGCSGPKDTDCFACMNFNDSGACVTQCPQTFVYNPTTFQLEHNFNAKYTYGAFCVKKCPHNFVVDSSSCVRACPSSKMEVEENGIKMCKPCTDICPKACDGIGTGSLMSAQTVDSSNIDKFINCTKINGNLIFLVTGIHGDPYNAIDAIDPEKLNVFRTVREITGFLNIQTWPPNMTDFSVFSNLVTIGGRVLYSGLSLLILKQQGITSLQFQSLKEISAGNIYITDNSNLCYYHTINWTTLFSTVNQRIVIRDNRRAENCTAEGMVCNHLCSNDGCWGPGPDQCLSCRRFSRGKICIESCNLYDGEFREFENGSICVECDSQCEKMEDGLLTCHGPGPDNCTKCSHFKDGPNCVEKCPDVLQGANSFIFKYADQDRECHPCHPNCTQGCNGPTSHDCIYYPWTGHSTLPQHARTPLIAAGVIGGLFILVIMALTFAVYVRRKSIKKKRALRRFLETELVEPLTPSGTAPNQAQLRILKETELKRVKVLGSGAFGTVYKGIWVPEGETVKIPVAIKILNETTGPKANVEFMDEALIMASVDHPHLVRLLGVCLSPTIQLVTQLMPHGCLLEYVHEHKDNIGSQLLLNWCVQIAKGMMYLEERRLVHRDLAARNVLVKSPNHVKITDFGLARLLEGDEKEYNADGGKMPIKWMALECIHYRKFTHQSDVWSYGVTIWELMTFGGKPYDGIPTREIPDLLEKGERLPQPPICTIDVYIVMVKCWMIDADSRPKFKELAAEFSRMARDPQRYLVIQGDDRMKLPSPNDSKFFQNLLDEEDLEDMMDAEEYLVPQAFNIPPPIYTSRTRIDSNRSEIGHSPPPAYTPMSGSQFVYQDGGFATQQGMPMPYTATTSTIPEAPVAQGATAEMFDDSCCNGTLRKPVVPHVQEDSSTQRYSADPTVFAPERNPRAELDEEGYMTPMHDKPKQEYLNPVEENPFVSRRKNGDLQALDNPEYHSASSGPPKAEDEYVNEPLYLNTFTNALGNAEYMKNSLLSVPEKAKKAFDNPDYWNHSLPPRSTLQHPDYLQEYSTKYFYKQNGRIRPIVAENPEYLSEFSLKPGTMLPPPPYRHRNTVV
T2 sequence (P06494 23-1257 partner): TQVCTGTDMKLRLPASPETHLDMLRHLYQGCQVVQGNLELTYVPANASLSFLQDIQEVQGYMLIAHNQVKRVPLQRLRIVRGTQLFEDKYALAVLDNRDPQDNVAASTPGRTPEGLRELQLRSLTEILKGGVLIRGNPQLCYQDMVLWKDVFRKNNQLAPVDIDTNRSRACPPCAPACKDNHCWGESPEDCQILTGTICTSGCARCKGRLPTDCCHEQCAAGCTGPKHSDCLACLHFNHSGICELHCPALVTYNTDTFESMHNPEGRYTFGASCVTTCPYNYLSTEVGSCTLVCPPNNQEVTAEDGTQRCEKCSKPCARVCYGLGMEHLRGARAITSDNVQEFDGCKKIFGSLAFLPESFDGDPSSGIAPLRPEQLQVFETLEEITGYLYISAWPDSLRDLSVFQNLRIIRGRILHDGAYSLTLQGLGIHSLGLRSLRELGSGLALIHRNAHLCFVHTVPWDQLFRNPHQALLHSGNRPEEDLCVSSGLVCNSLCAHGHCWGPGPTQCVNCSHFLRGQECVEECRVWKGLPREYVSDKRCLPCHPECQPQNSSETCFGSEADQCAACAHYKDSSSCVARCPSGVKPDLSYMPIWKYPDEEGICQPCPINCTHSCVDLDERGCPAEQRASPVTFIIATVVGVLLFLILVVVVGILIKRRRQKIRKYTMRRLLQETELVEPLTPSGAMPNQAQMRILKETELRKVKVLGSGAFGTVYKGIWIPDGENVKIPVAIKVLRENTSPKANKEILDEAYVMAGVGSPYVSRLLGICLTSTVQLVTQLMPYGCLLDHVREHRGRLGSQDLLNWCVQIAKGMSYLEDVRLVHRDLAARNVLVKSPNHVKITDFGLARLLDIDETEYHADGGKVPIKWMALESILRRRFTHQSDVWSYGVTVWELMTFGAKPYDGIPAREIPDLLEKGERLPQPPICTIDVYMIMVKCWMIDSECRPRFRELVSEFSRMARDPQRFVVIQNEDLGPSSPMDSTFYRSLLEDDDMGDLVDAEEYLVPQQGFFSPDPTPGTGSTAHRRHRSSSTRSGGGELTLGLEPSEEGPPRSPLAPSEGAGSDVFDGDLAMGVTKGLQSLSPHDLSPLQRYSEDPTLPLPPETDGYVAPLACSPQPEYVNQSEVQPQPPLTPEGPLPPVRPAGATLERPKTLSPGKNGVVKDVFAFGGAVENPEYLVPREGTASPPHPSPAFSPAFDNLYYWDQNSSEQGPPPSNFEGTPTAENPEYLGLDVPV
T1 sequence (Q62799 20-1339): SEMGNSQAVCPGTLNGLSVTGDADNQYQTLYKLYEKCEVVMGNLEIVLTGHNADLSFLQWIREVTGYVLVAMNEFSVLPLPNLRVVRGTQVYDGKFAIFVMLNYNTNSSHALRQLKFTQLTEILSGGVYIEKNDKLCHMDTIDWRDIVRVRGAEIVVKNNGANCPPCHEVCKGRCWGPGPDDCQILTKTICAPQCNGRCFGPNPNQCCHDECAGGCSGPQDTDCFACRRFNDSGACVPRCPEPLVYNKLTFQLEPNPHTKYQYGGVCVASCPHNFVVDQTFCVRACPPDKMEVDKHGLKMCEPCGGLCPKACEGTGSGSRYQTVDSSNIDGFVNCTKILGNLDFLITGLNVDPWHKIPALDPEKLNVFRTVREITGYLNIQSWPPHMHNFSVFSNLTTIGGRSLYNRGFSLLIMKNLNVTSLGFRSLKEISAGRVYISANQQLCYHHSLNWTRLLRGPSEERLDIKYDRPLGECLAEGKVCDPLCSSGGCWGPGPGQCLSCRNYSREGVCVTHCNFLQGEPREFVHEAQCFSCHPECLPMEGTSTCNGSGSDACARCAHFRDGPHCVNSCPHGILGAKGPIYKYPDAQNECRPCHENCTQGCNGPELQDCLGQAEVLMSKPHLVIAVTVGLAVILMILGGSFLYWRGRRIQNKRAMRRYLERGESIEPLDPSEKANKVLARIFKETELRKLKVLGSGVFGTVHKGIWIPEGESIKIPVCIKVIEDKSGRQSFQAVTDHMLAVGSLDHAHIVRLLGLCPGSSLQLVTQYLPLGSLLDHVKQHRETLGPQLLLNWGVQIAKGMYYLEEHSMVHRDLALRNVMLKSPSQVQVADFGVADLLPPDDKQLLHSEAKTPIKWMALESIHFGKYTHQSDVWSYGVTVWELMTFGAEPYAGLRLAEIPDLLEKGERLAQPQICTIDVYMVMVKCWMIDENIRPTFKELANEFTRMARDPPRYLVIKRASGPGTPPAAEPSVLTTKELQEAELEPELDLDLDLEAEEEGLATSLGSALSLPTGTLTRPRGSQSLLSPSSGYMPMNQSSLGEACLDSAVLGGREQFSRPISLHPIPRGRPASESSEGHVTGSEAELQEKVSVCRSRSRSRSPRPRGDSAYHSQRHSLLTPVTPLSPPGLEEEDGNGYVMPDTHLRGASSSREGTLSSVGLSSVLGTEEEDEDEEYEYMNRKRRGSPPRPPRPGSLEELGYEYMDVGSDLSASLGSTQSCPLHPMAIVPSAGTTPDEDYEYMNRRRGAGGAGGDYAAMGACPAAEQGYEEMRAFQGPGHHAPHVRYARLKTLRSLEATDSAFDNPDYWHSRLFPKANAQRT
T1 sequence (P06494 23-1257 partner): as the sequence (P06494 23-1257 partner) above

| EC50 (ErbB3) [nM] | EC50 (ErbB4) | Selectivity SC/CM (ErbB4) | CM % Agonism AVG (ErbB4) [%] | Molecule |
| --- | --- | --- | --- | --- |
| > 10000 | 0.54 nM | >10000 | 74.9 | huNRG1(S177-F229)(NRGE1D)(NRGmod)::G4::huFcSEFL2 (Pb): Fc fusion of NRG1 variant SEQ ID NO:126 (protein, huNRG1(S177-F229)(NRGE1D) (NRGmod)::G4::huFcSEFL2 (Pb)) SHLVKCGESHKSFCVNGGECYMVEGSSIPSRYLCKCPNEFTGDRCQEDFMASFAAAEELYQGGGG[letters of human IgG1 Fc with R292C N297G V302C (EU numbers) not shown] |
| > 10000 | 0.41 nM and 0.476 nM | >10000 | 82 | huNRG1(S177-Q237)(NRGE1C)::GG::huFcSEFL2 (Pb): Fc fusion of NRG1 variant SEQ ID NO:124 (protein, huNRG1(S177-Q237)(NRGE1C)::GG::huFcSEFL2 (Pb)) SHLVKCGEKHKSFCVNGGECFMIEGPSNPSRYLCKCPNEFTGDRCQEDFMASFYKAEELYQGG[letters of human IgG1 Fc with R292C N297G V302C (EU numbers) not shown] |
| > 10000 | 1.48 nM | >6700 | 76 | huNRG1(S177-Q237)(NRGE1B)::GG::huFcSEFL2 (Pb): Fc fusion of NRG1 variant SEQ ID NO:115 (protein, huNRG1(S177-Q237)(NRGE1B)::GG::huFcSEFL2 (Pb)) SHLVKCGENDKSFCVNGGECYMVEGSSIPSRYLCKCPNEFTGDRCQEDFMASFYKAEELYQGG[letters of human IgG1 Fc with R292C N297G V302C (EU numbers) not shown] |
| > 10000 | 0.33 nM and 0.303 nM | >10000 | 83 | huNRG1(S177-Q237)(NRGE1D)::GG::huFcSEFL2 (Pb): Fc fusion of NRG1 variant SEQ ID NO:131 (protein, huNRG1(S177-Q237)(NRGE1D)::GG::huFcSEFL2 (Pb)) SHLVKCGESHKSFCVNGGECYMVEGSSIPSRYLCKCPNEFTGDRCQEDFMASFYKAEELYQGG[letters of human IgG1 Fc with R292C N297G V302C (EU numbers) not shown] |
| > 10000 | 1.84 nM | >5500 | 72 | huNRG1(S177-Q237)(NRGE1A)::GG::huFcSEFL2 (Pb): Fc fusion of NRG1 variant SEQ ID NO:114 (protein, huNRG1(S177-Q237)(NRGE1A)::GG::huFcSEFL2 (Pb)) SHLVKCAENDKSFCVNGGECFMIEGPSNPSRYLCKCPNEFTGDRCQEDFMASFYKAEELYQGG[letters of human IgG1 Fc with R292C N297G V302C (EU numbers) not shown] |
| 27.7 | 43.5 nM | 0.6 |  | huNRG1(S177-S228)(3H8)::3x(G4Q)::huFcSEFL2 (Pb): Fc fusion of NRG1 variant SEQ ID NO:169 (protein, huNRG1(S177-S228)(3H8)::3x(G4Q)::huFcSEFL2 (Pb)) SHLVKCGEKHKSFCVNGGECYMVEGSSIPSRYLCKCPNEFTGDRCQEDFMASGGGGQGGGGQGGGGQ[letters of human IgG1 Fc with changes not shown] |
| > 10000 | 229 nM | >100 |  | huNRG1(S177-S228)(NRGE1D)::3x(G4Q)::huFcSEFL2 (Pb): Fc fusion of NRG1 variant SEQ ID NO:125 (protein, huNRG1(S177-S228)(NRGE1D)::3x(G4Q)::huFcSEFL2 (Pb)) SHLVKCGESHKSFCVNGGECYMVEGSSIPSRYLCKCPNEFTGDRCQEDFMASGGGGQGGGGQGGGGQ[letters of human IgG1 Fc with changes not shown] |
| 149 | 0.28 nM | 527 |  | huNRG1(S177-F229)(3H8)::3x(G4Q)::huFcSEFL2 (Pb): Fc fusion of NRG1 variant SEQ ID NO:170 (protein, huNRG1(S177-Q237)(3H8)::3x(G4Q)::huFcSEFL2 (Pb)) SHLVKCGEKHKSFCVNGGECYMVEGSSIPSRYLCKCPNEFTGDRCQEDFMASFGGGGQGGGGQGGGGQ[letters of human IgG1 Fc with changes not shown] |
| > 10000 | 0.24 nM and 0.33 nM | >10000 | 77.3 | huNRG1(S177-F229)(NRGE1C)::3x(G4Q)::huFcSEFL2 (Pb): Fc fusion of NRG1 variant SEQ ID NO:117 (protein, huNRG1(S177-F229)(NRGE1C)::3x(G4Q)::huFcSEFL2 (Pb)) SHLVKCGEKHKSFCVNGGECFMIEGPSNPSRYLCKCPNEFTGDRCQEDFMASFGGGGQGGGGQGGGGQ[letters of human IgG1 Fc with changes not shown] |
| 100 | 0.24 nM | 414 |  | huNRG1(S177-Q237)(3H8)::3x(G4Q)::huFcSEFL2 (Pb): Fc fusion of NRG1 variant SEQ ID NO:171 (protein, huNRG1(S177-Q237)(3H8)::3x(G4Q)::huFcSEFL2 (Pb)) SHLVKCGEKHKSFCVNGGECYMVEGSSIPSRYLCKCPNEFTGDRCQEDFMASFYKAEELYQGGGGQGGGGQGGGGQ[letters of human IgG1 Fc with changes not shown] |
| > 10000 | 0.21 nM | >10000 |  | huNRG1(S177-Q237)(NRGE1D)::3x(G4Q)::huFcSEFL2 (Pb): Fc fusion of NRG1 variant SEQ ID NO:131 (protein, huNRG1(S177-Q237)(NRGE1D)::3x(G4Q)::huFcSEFL2 (Pb)) SHLVKCGESHKSFCVNGGECYMVEGSSIPSRYLCKCPNEFTGDRCQEDFMASFYKAEELYQGGGGQGGGGQGGGGQ[letters of human IgG1 Fc with changes not shown] |
| > 10000 | 0.2 nM | >10000 |  | huNRG1(S177-Q237)(3H8)::3xG4S::huFcSEFL2 (Pb): Fc fusion of NRG1 variant SEQ ID NO:171 (protein, huNRG1(S177-Q237)(3H8)::3xG4S::huFcSEFL2 (Pb)) SHLVKCGEKHKSFCVNGGECYMVEGSSIPSRYLCKCPNEFTGDRCQEDFMASFYKAEELYQGGGGSGGGGSGGGGS[letters of human IgG1 Fc with R292C N297G V302C (EU numbers) not shown] |
